Test results published in the supplement of paper PMC8728848.
The list shows a part of the results.

Assays:
Test in all cases: glycan array binding signal (z-score within array); higher = stronger binding
Details in all cases: glycan notation: IUPAC condensed, linker removed
[1] = target: Man(a1-3)[Man(a1-6)]Man(b1-4)GlcNAc(b1-4)GlcNAc
Method in brief: (§1)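 Glycan array binding is given as a within-array Z-score, which can be read as non-binding when negative. The arrays, 3228 of them, came from the Consortium for Functional Glycomics database and were retained only where the protein sequence was available. Z-scores were averaged across arrays of the same protein sequence at different concentrations or buffers and across linkers.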

[2] = target: Man(a1-3)[Man(a1-6)]Man(b1-4)GlcNAc(b1-4)[Fuc(a1-6)]GlcNAc
Method in brief: as §1

[3] = target: Man(a1-6)Man
Method in brief: as §1

[4] = target: Man(b1-4)GlcNAc
Method in brief: as §1

[5] = target: MurNAc(b1-4)GlcNAc
Method in brief: as §1

[6] = target: Neu5Ac(a2-3)Gal
Method in brief: as §1

[7] = target: Neu5Ac(a2-3)Gal(b1-3)GalNAc
Method in brief: as §1

[8] = target: Neu5Ac(a2-3)Gal(b1-3)GalNAc(b1-3)Gal(a1-4)Gal(b1-4)Glc
Method in brief: as §1

[9] = target: Neu5Ac(a2-3)Gal(b1-3)GalNAc(b1-3)Gal(b1-4)GlcNAc
Method in brief: as §1

[10] = target: Neu5Ac(a2-3)Gal(b1-3)GalNAc(b1-4)[Neu5Ac(a2-3)]Gal(b1-4)Glc
Method in brief: as §1

[11] = target: Neu5Ac(a2-3)Gal(b1-3)GalNAc(b1-4)[Neu5Ac(a2-8)Neu5Ac(a2-3)]Gal(b1-4)Glc
Method in brief: as §1

[12] = target: Neu5Ac(a2-3)Gal(b1-3)GalNAc6S
Method in brief: as §1

[13] = target: Neu5Ac(a2-3)Gal(b1-3)GlcNAc
Method in brief: as §1

[14] = target: Neu5Ac(a2-3)Gal(b1-3)GlcNAc(b1-2)Man
Method in brief: as §1

[15] = target: Neu5Ac(a2-3)Gal(b1-3)GlcNAc(b1-2)Man(a1-3)[GlcNAc(b1-4)][Neu5Ac(a2-3)Gal(b1-3)GlcNAc(b1-2)Man(a1-6)]Man(b1-4)GlcNAc(b1-4)GlcNAc
Method in brief: as §1

[16] = target: Neu5Ac(a2-3)Gal(b1-3)GlcNAc(b1-2)Man(a1-3)[Neu5Ac(a2-3)Gal(b1-3)GlcNAc(b1-2)Man(a1-6)]Man(b1-4)GlcNAc(b1-4)GlcNAc
Method in brief: as §1

[17] = target: Neu5Ac(a2-3)Gal(b1-3)GlcNAc(b1-3)Gal(b1-3)GlcNAc
Method in brief: as §1

[18] = target: Neu5Ac(a2-3)Gal(b1-3)GlcNAc(b1-3)Gal(b1-4)GlcNAc
Method in brief: as §1

[19] = target: Neu5Ac(a2-3)Gal(b1-3)GlcNAc(b1-3)GalNAc
Method in brief: as §1

[20] = target: Neu5Ac(a2-3)Gal(b1-3)GlcNAc(b1-4)Gal(b1-4)Glc
Method in brief: as §1

[21] = target: Neu5Ac(a2-3)Gal(b1-3)GlcNAc(b1-6)GalNAc
Method in brief: as §1

[22] = target: Neu5Ac(a2-3)Gal(b1-3)GlcNAc6S
Method in brief: as §1

B1: HPA (Helix pomatia), Q2F1K8 (protein)
chain: MQAFYSGLLLLCVVAFAAAQRVQSGKIDCGNDAGWAKVPSDDPGRDNTRELAKNITFASPYCRPPVVLLSITQLDVEQSQNLRVIARLYSVSPTGFKASCYTWHNTKVYSMSISWISIENY
- glycan array binding signal (z-score) [1]: -0.19
- glycan array binding signal (z-score) [2]: -0.071
- glycan array binding signal (z-score) [3]: -0.11
- glycan array binding signal (z-score) [4]: -0.144
- glycan array binding signal (z-score) [5]: -0.319
- glycan array binding signal (z-score) [6]: -0.244
- glycan array binding signal (z-score) [7]: 0.033
- glycan array binding signal (z-score) [8]: -0.079
- glycan array binding signal (z-score) [9]: -0.061
- glycan array binding signal (z-score) [10]: -0.295
- glycan array binding signal (z-score) [11]: -0.121
- glycan array binding signal (z-score) [12]: -0.272
- glycan array binding signal (z-score) [13]: -0.209
- glycan array binding signal (z-score) [14]: 0.088
- glycan array binding signal (z-score) [15]: -0.147
- glycan array binding signal (z-score) [16]: -0.195
- glycan array binding signal (z-score) [17]: -0.156
- glycan array binding signal (z-score) [18]: -0.311
- glycan array binding signal (z-score) [19]: -0.239
- glycan array binding signal (z-score) [20]: -0.252
- glycan array binding signal (z-score) [21]: -0.332
- glycan array binding signal (z-score) [22]: -0.281
